Experimental data: the supplement of paper PMC10037445
± gives the standard deviation of the averaged measurements. The full ranking holds about 2,900 compounds; the median of “IRF Lucia reporter activity, fold change vs agonist alone” is about 0.9, and the highest 2% start at about 2.8. Some of the results follow.

How the values were obtained:
RAW-Dual [1] = experiment: IRF Lucia reporter activity, fold change vs agonist alone; cytotoxicity flag (confluency mask): not cytotoxic; higher = enhanced IRF activity
Method in brief: (§1)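 Reporter activity is given as fold change relative to agonist-alone wells. To measure it, 50 nL of library stock was pin-tooled onto RAW-Dual macrophages (50,000 cells/well, DMEM, 384-well plates), a PRR agonist followed 1 h later, and cells stayed at 37 °C, 5% CO2. Twenty hours on, supernatant was assayed for IRF (QuantiLuc luminescence) and NF-κB (QuantiBlue, 620 nm absorbance), and wells under 70% of agonist-control IncuCyte confluency in both mask sets were marked cytotoxic.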

RAW-Dual [2] = experiment: IRF Lucia reporter activity, fold change vs agonist alone; cytotoxicity flag (confluency mask): cytotoxic (confluency <70% of control); higher = enhanced IRF activity
Method in brief: as §1

RAW-Dual [3] = experiment: IRF Lucia reporter activity, fold change vs agonist alone; higher = enhanced IRF activity; settings: library stock concentration (final ~1000-fold dilution): 10 mM, agonist: MPLA (TLR4) […]
Method in brief: as §1

[4] = agonist: 3'3'-cGAMP (STING) 10 ug/mL
[5] = cytotoxicity flag (confluency mask): cytotoxic (confluency <70% of control)
[6] = cytotoxicity flag (confluency mask): not cytotoxic

Question: `O=[N+]([O-])c1cnc(Sc2nnc(O)n2-c2ccc3c(c2)OCCO3)s1` (library stock concentration (final ~1000-fold dilution): 10 mM) was tested. Which “IRF Lucia reporter activity” value (RAW-Dual [1]; [4]) did it give?
Answer: Its value is 0.0101.

Question: What about the “IRF Lucia reporter activity” value (RAW-Dual [1]; agonist: LPS (TLR4) 0.1 ug/mL) of the same compound?
Answer: Its value is 0.00928.

Question: For `C/C(=N\NC(=O)c1cccc(S(=O)(=O)N2CCOCC2)c1)c1cc(Cl)ccc1O` (library stock concentration (final ~1000-fold dilution): 10 mM), which “IRF Lucia reporter activity” value (RAW-Dual [1]; [4]) is on record?
Answer: Its value is 0.735.

Question: What about the “IRF Lucia reporter activity” value (RAW-Dual [1]; agonist: LPS (TLR4) 0.1 ug/mL) of the same compound?
Answer: The value was 1.74.

Question: With `C=CC(=O)Nc1cc(Nc2nccc(-c3cn(C)c4ccccc34)n2)c(OC)cc1N(C)CCN(C)C.CS(=O)(=O)O` (library stock concentration (final ~1000-fold dilution): 10 mM) as the compound, how does the “IRF Lucia reporter activity” value (RAW-Dual [2]; [4]) read?
Answer: Its value is 0.144.

Question: And the “IRF Lucia reporter activity” value (RAW-Dual [2]; agonist: LPS (TLR4) 0.1 ug/mL)?
Answer: Its value is 0.936.

Question: `C=CC(=O)Nc1cc(Nc2nccc(-c3cn(C)c4ccccc34)n2)c(OC)cc1N(C)CCN(C)C.CS(=O)(=O)O` was tested. Which “IRF Lucia reporter activity” value (RAW-Dual [3]; [5]) did it give?
Answer: The value was 0.428.

Question: For `CC1CCC2C(C)(C)C3CC12CCC3(C)O` (stereo not given), which “IRF Lucia reporter activity” value (RAW-Dual [3]; [5]) is on record?
Answer: The value was 1.23.

Question: How did the “IRF Lucia reporter activity” value (RAW-Dual [2]; [4]) turn out when `CC1CCC2C(C)(C)C3CC12CCC3(C)O` (stereo not given) (library stock concentration (final ~1000-fold dilution): 10 mM) was run?
Answer: The value was 1.15.

Question: What about the “IRF Lucia reporter activity” value (RAW-Dual [2]; agonist: LPS (TLR4) 0.1 ug/mL) of the same compound?
Answer: Its value is 1.04.

Question: How did the “IRF Lucia reporter activity” value (RAW-Dual [3]; [6]) turn out when `O=c1cccccc1O` was run?
Answer: The value was 1.24.

Question: `O=c1cccccc1O` (library stock concentration (final ~1000-fold dilution): 10 mM) was tested. Which “IRF Lucia reporter activity” value (RAW-Dual [1]; [4]) did it give?
Answer: Its value is 0.664.

Question: And the “IRF Lucia reporter activity” value (RAW-Dual [1]; agonist: LPS (TLR4) 0.1 ug/mL)?
Answer: Its value is 0.952.

Question: Which results are given for `CCC(F)(F)c1cc(N2CCC(S(C)(=O)=O)CC2)nc2sc(C(N)=O)c(N)c12` (library stock concentration (final ~1000-fold dilution): 10 mM)?
Answer: IRF Lucia reporter activity (RAW-Dual [1]; [4]): 0.22; IRF Lucia reporter activity (RAW-Dual [1]; agonist: LPS (TLR4) 0.1 ug/mL): 0.156

Question: What does the source list for `Cc1cn(C2OC(CO)C(O)C2F)c(=O)[nH]c1=O` (stereo not given) (library stock concentration (final ~1000-fold dilution): 10 mM)?
Answer: IRF Lucia reporter activity (RAW-Dual [1]; [4]): 1.02; IRF Lucia reporter activity (RAW-Dual [1]; agonist: LPS (TLR4) 0.1 ug/mL): 0.922

Question: Which “IRF Lucia reporter activity” value (RAW-Dual [3]; [6]) does the source give for `Cc1cn(C2OC(CO)C(O)C2F)c(=O)[nH]c1=O` (stereo not given) here?
Answer: Its value is 1.11.

Question: Which results are given for `CC(=O)N1CCN(CCOc2ccc(C3CCN(C4=Nn5c(nnc5C(F)(F)F)CC4)CC3)cc2)CC1` (library stock concentration (final ~1000-fold dilution): 10 mM)?
Answer: IRF Lucia reporter activity (RAW-Dual [2]; [4]): 0.627; IRF Lucia reporter activity (RAW-Dual [2]; agonist: LPS (TLR4) 0.1 ug/mL): 0.381

Question: For `CC(=O)N1CCN(CCOc2ccc(C3CCN(C4=Nn5c(nnc5C(F)(F)F)CC4)CC3)cc2)CC1`, which “IRF Lucia reporter activity” value (RAW-Dual [3]; [5]) is on record?
Answer: Its value is 0.28.

Question: Which results are given for `O=C(O)c1ccc(/C=C2/SC(=S)N(c3cccc(C(F)(F)F)c3)C2=O)cc1` (library stock concentration (final ~1000-fold dilution): 10 mM)?
Answer: IRF Lucia reporter activity (RAW-Dual [1]; [4]): 0.868; IRF Lucia reporter activity (RAW-Dual [1]; agonist: LPS (TLR4) 0.1 ug/mL): 1.26

Question: For `O=C(O)c1ccc(/C=C2/SC(=S)N(c3cccc(C(F)(F)F)c3)C2=O)cc1`, which “IRF Lucia reporter activity” value (RAW-Dual [3]; [6]) is on record?
Answer: Its value is 1.18.

Question: Which “IRF Lucia reporter activity” value (RAW-Dual [3]; [6]) does the source give for `CCc1cccc2c3c([nH]c12)C(CC)(CC(=O)O)OCC3` (stereo not given) here?
Answer: The value was 1.12.

Question: Which “IRF Lucia reporter activity” value (RAW-Dual [1]; [4]) does the source give for `CCc1cccc2c3c([nH]c12)C(CC)(CC(=O)O)OCC3` (stereo not given) (library stock concentration (final ~1000-fold dilution): 10 mM) here?
Answer: Its value is 1.05.

Question: What about the “IRF Lucia reporter activity” value (RAW-Dual [1]; agonist: LPS (TLR4) 0.1 ug/mL) of the same compound?
Answer: The value was 0.946.

Question: For `O=C1CC(c2c[nH]c3ccc(F)cc23)C(=O)N1` (stereo not given) (library stock concentration (final ~1000-fold dilution): 10 mM), which “IRF Lucia reporter activity” value (RAW-Dual [1]; [4]) is on record?
Answer: The value was 0.989.

Question: What about the “IRF Lucia reporter activity” value (RAW-Dual [1]; agonist: LPS (TLR4) 0.1 ug/mL) of the same compound?
Answer: The value was 0.839.

Question: For `CC(C)=CC(C)C[C@](C)(O[C@@H]1O[C@H](CO)[C@@H](O)[C@H](O)[C@H]1O)[C@H]1CC[C@]2(C)C3CCC4C(C)(C)C(O[C@@H]5O[C@H](CO)[C@@H](O)[C@H](O)[C@H]5O[C@@H]5O[C@H](CO)[C@@H](O)[C@H](O)[C@H]5O)CC[C@]4(C)C3C[C@H](O)[C@@H]12` (stereo not given in full) (library stock concentration (final ~1000-fold dilution): 10 mM), which “IRF Lucia reporter activity” value (RAW-Dual [1]; [4]) is on record?
Answer: The value was 0.991.

Question: And the “IRF Lucia reporter activity” value (RAW-Dual [1]; agonist: LPS (TLR4) 0.1 ug/mL)?
Answer: Its value is 1.47.

Question: `Cc1nc(N)sc1-c1ccnc(Nc2ccc(N3CCOCC3)cc2)n1` was tested. Which “IRF Lucia reporter activity” value (RAW-Dual [3]; [6]) did it give?
Answer: Its value is 0.0284.

Question: `Cc1nc(N)sc1-c1ccnc(Nc2ccc(N3CCOCC3)cc2)n1` (library stock concentration (final ~1000-fold dilution): 10 mM) was tested. Which “IRF Lucia reporter activity” value (RAW-Dual [1]; [4]) did it give?
Answer: The value was 0.0149.

Question: What about the “IRF Lucia reporter activity” value (RAW-Dual [1]; agonist: LPS (TLR4) 0.1 ug/mL) of the same compound?
Answer: The value was 0.023.

Question: For `CC(=O)OC1CC/C(C)=C/CC/C(C)=C/CC2(C(C)C)CCC1(C)O2` (stereo not given) (library stock concentration (final ~1000-fold dilution): 10 mM), which “IRF Lucia reporter activity” value (RAW-Dual [1]; [4]) is on record?
Answer: Its value is 0.818 ± 0.25.

Question: What about the “IRF Lucia reporter activity” value (RAW-Dual [1]; agonist: LPS (TLR4) 0.1 ug/mL) of the same compound?
Answer: The value was 0.744 ± 0.15.

Question: Which results are given for `COc1cc2ncnc(Nc3ccc(Oc4ccccc4)cc3C)c2cc1OC.Cl` (library stock concentration (final ~1000-fold dilution): 10 mM)?
Answer: IRF Lucia reporter activity (RAW-Dual [1]; [4]): 0.418; IRF Lucia reporter activity (RAW-Dual [1]; agonist: LPS (TLR4) 0.1 ug/mL): 1.49

Question: What does the source list for `Cc1cccc(-c2n[nH]cc2-c2ccc3ncccc3n2)n1` (library stock concentration (final ~1000-fold dilution): 10 mM)?
Answer: IRF Lucia reporter activity (RAW-Dual [1]; [4]): 0.154; IRF Lucia reporter activity (RAW-Dual [1]; agonist: LPS (TLR4) 0.1 ug/mL): 0.327

Question: How did the “IRF Lucia reporter activity” value (RAW-Dual [3]; [6]) turn out when `Cc1cccc(-c2n[nH]cc2-c2ccc3ncccc3n2)n1` was run?
Answer: Its value is 0.367.

Question: `Cc1cc(-c2ccnc3cc(O)ccc23)ccc1O` (library stock concentration (final ~1000-fold dilution): .1 mM) was tested. Which “IRF Lucia reporter activity” value (RAW-Dual [1]; [4]) did it give?
Answer: The value was 1.02.

Question: And the “IRF Lucia reporter activity” value (RAW-Dual [1]; agonist: LPS (TLR4) 0.1 ug/mL)?
Answer: Its value is 1.02.

Question: `CN1CCC(c2c(O)cc(O)c3c(=O)cc(-c4ccccc4Cl)oc23)C1CO.Cl` (stereo not given) (library stock concentration (final ~1000-fold dilution): 10 mM) was tested. Which “IRF Lucia reporter activity” value (RAW-Dual [2]; [4]) did it give?
Answer: Its value is 0.00862.

Question: What about the “IRF Lucia reporter activity” value (RAW-Dual [2]; agonist: LPS (TLR4) 0.1 ug/mL) of the same compound?
Answer: Its value is 0.0242.
